The values that follow come from PubChem BioAssay AID1240 (Sanford-Burnham Center for Chemical Genomics, 2008).

Each structure is given as a SMILES string. The campaign covered roughly 50,000 compounds. About 800 (1.6%) showed an effect of 50% or more. This is one part of the list.

For this test, the target named is Bcl-2-like protein 10 (Homo sapiens) (UniProt Q9HD36). The test is described as follows: TR3 peptide-Bcl-B binding displacers, biochemical primary FP assay, phenotype converters (AID 1240).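 Also: 0% = Bcl-B with tracer peptide and DMSO and 100% = tracer peptide lacking Bcl-B.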 The settings on record: GST-Bcl-B / FITC-TR3 peptide fluorescence polarization; stronger effect = higher value; compound at 3.75 mg/L. For orientation: Polarisation of emitted light reports the rotation of a fluorescent probe.
Chain of UniProt Q9HD36 (Q9HD36 whole entry, looked up): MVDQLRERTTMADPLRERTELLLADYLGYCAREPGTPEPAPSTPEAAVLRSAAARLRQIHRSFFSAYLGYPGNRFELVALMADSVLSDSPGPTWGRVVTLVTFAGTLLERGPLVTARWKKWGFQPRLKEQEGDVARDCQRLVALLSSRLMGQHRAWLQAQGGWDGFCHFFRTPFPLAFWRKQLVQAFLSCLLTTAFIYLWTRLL
As to `COc1ccc(CNC(=O)/C=C/c2ccccc2)cc1`, the displacement was found to be 12.3%.
As to `COc1ccccc1N1CCN(C(=O)c2nn3c(c2Cl)NC(c2ccc(Br)cc2)CC3C(F)(F)F)CC1` (stereo not drawn), the displacement is 10%.
`Cc1cccc(C)c1NC(=S)NC(=O)c1ccccc1`: the displacement is -5.1%.
Consider `O=C(CSc1cccc2cccnc12)Nc1ccccc1`, for which the displacement is -3.3%.
With `COc1ccc2c(-c3ccccc3)cc(=O)[nH]c2c1`, the displacement was -6.2%.
Consider `COc1ccc(N2C(=O)NC(=O)/C(=C\c3ccc(O)c(Cl)c3)C2=O)cc1`, for which the displacement worked out at 12.1%.
Under `COc1ccc(C(=O)N2CCN(C3CCCCC3)CC2)cc1` stands 1%; under `CC(O)c1ccc(NC(=O)c2cnn3c2NC(c2ccc(F)cc2)CC3C(F)(F)F)cc1` (stereo not drawn), 3%.
For the molecule `Cc1cc(N2C(=O)NC(=O)/C(=C\c3sccc3C)C2=O)ccc1Br`, the displacement is -20.8%.
In the case of `O=C(COc1ccc(Br)cc1)NCc1ccccn1`, the displacement was 0%.
With `CCOC(=O)c1c(N)sc(C(=O)N(C)Cc2ccccc2)c1C`, the displacement is 2.9%.
Turning to `Cc1ccc(NS(=O)(=O)c2cc(Cl)ccc2Cl)c(Br)c1`, the displacement came out at 4.4%.
`COc1ccccc1NC(=O)C1=C(C)NC(=S)NC1c1ccc(O)cc1` (stereo not drawn): the displacement was -7.2%.
As to `COc1ccc(Br)cc1C(=O)Nc1cccnc1`, the displacement is -4.7%.
With `c1cc2c(cc1CNC13CC4CC(CC(C4)C1)C3)OCO2`, the displacement amounted to 3.8%.
For `COc1ccc(OC)c(NC(=O)c2cccc(F)c2)c1`, the displacement was -1.5%.
Under `O=C(Cc1ccccc1)Nc1ccc(OC(F)(F)F)cc1` stands -7.8%.
For the molecule `O=C(N/N=C/c1cccs1)C(=O)NC1CCCCC1`, the displacement worked out at 7.6%.
Under `O=[N+]([O-])c1ccc2c(c1)S(=O)(=O)NC2=NCCC1=CCCCC1` stands 9.7%.
On to `Cc1ccccc1-c1nc2cc(Cl)ccc2o1`, for which the displacement came to 12.4%.
Take `COc1ccc(C(=O)N(Cc2ccccc2)c2ccccn2)c(OC)c1`: the displacement is 10.9%.
With `O=C1c2ccccc2C(=O)C1c1cccc2ccccc12`, the displacement amounted to 17.6%.
In the case of `COc1cc(OC)c(/C=C2/SC(NC(C)=O)=NC2=O)cc1Br`, the displacement is 138%.
On to `Cc1ccccc1C(=O)Nc1cccc(C(=O)Nc2ccccc2Cl)c1`, for which the displacement came out at 2.3%.
As to `Cc1nn(C(=O)Cc2ccccc2)c(C)c1Br`, the displacement was -3.2%.
Consider `Cc1ccc(C(=O)/C=C/c2c[nH]c3ccccc23)cc1`, for which the displacement is 14.9%.
The same measure for `CS(=O)(=O)N1CCN(C(=O)COc2ccc(Cl)cc2)CC1`: -12.3%; for `O=C1C2C3C=CC(CC3)C2C(=O)N1/N=C/c1ccccc1I` (stereo not drawn): -1.8%.
`CC(C)(C)NCC(O)COc1ccccc1C(C)(C)C` (stereo not drawn): the displacement stood at 1.1%.
Under `O=C1C(=O)N(CCCn2ccnc2)C(c2cccc(F)c2)/C1=C(\O)c1ccc(Cl)cc1` (stereo not drawn) stands -6%; under `O=C(Cc1ccccc1)Nc1c(F)c(F)c(F)c(F)c1F`, -10.4%.
As for `C=COCCn1c(-c2nonc2N)nc2ccccc21`, the displacement is 4.8%.
`COc1ccc(N2C(=O)NC(=O)/C(=C\c3ccc(Br)s3)C2=O)cc1`: the displacement stood at 1.1%.
For `CCOC(=O)C1=C(C)NC2=C(C(=O)CCC2)C1c1ccc2c(c1)OCO2` (stereo not drawn), the displacement came to 4.2%.
Take `CCOc1ccc2nc(SCC(=O)Nc3ccc4nc(SCC(=O)NC5CC5)sc4c3)sc2c1`: the displacement came to 0.3%.
Under `Cc1ccc(/C=C/C(=O)Nc2cccc3ccccc23)o1` stands -7.3%; under `O=C(Nc1nc(-c2ccccc2)cs1)c1cc2ccccc2o1`, 11.2%; under `O=C(COc1ccc2ccccc2c1)Nc1ccncc1`, 6.1%.
Turning to `O=C(Nc1ccc(I)cc1)/C(=C\c1cccs1)NC(=O)c1ccccc1`, the displacement is 0.6%.
Turning to `Cc1ccccc1N1C(=O)NC(=O)/C(=C\c2ccc(OCc3cccc(C(=O)O)c3)cc2)C1=O`, the displacement is 13.6%.
The same measure for `CC/C(C)=N\NC(=O)c1cc(-c2ccccc2)nc2ccccc12`: -4.5%; for `COc1ccccc1C(=O)Nc1c(F)c(F)c(F)c(F)c1F`: 0.6%; for `CC1=C(C(=O)OCCOc2ccccc2)C(c2ccsc2)NC(=O)N1C` (stereo not drawn): 2.5%.
For `CC1(C)CC(=O)C2=C(C1)NC1=C(C(=O)c3ccccc31)C2c1ccc(OCc2ccccc2)cc1` (stereo not drawn), the displacement is -1%.
Regarding `COc1cc(NC(=O)c2ccc([N+](=O)[O-])cc2Cl)ccc1NC(=O)c1ccco1`, the displacement stood at 4.5%.
Under `O=C(Nc1ccccc1)Nc1nnc(COc2ccc(Br)cc2)s1` stands -2.9%.
With `Cc1ccc(N2NC(=O)/C(=C/c3ccc(Cl)cc3)C2=O)cc1`, the displacement was 18.2%.
The same measure for `CC(NC(=O)CSc1nnc(SCC(=O)NC(C)c2ccccc2)s1)c1ccccc1` (stereo not drawn): -5.8%; for `NS(=O)(=O)c1cccc(NC(=O)c2ccc3c(c2)OCCO3)c1`: 7.4%.
Consider `CC1(C)CC(=O)C2=C(C1)Nc1ccc3ccccc3c1C2c1cccc([N+](=O)[O-])c1` (stereo not drawn), for which the displacement was -0.1%.
`CCOC(=O)CNC(=S)Nc1ccc(F)cc1`: the displacement was -7%.
Consider `Cc1ccc(N2CCN(S(=O)(=O)c3ccc(C)cc3)CC2)cc1`, for which the displacement was 4.5%.
With `CCOC(=O)C(C)Oc1ccc2c(=O)c(-c3ccccc3OC)coc2c1` (stereo not drawn), the displacement was -4.4%.
For the molecule `O=C(C#Cc1ccccc1)Nc1ccc(Cl)cc1`, the displacement is -2.9%.
On to `COC(=O)c1cccc(NC(=O)c2ccc[n+]([O-])c2)c1`, for which the displacement is -0.4%.
As to `O=C(N/N=C\c1cccc2ccccc12)C1CC(=O)N(c2ccc(F)cc2)C1` (stereo not drawn), the displacement is -63.4%.
As for `Oc1c(Br)ccc(Cl)c1C=Nc1cccc2nsnc12`, the displacement was determined as 29.6%.
In the case of `c1ccc(CSc2ncnc3nc[nH]c23)cc1`, the displacement was 13.7%.
As to `Cc1ccc(-c2nc3ccccc3o2)cc1NC(=O)c1cccc(Cl)c1`, the displacement was 17%.
As to `Cc1ccc(-c2ccc(C=C3C(=O)NC(=O)NC3=O)o2)c([N+](=O)[O-])c1`, the displacement came out at 1.3%.
Take `CC(C(=O)c1ccc(-c2ccccc2)cc1)[n+]1cccc(C(N)=O)c1` (stereo not drawn): the displacement was found to be 7.5%.
Consider `CCOC(=O)c1c(N)sc(C)c1-c1ccc(F)cc1`, for which the displacement was -5.5%.
Regarding `CC1=CC(=O)C=C/C1=N\OS(=O)(=O)c1ccc(C)cc1`, the displacement amounted to 32.6%.
Regarding `Cc1cc(Cl)ccc1OC(C)C(=O)NCc1cccnc1` (stereo not drawn), the displacement is -7.2%.
The same measure for `COc1cc(NC(=O)c2ccccc2Br)ccc1NC(=O)c1ccco1`: 2.1%; for `CCN1C(=O)/C(=C\C=C\c2cccc([N+](=O)[O-])c2)SC1=S`: -0.2%.
Turning to `COc1cc(OC)c(C2Nc3ccccc3NC3=C2C(=O)CC(c2ccccc2)C3)cc1OC` (stereo not drawn), the displacement stood at 9.4%.
Consider `CC1CCc2c(sc(NC(=O)CCCOc3ccc(Cl)cc3Cl)c2C(N)=O)C1` (stereo not drawn), for which the displacement is -9%.
With `O=C(NCCCO)c1ccccc1C(=O)c1ccccc1`, the displacement stood at 18.9%.
Turning to `O=C1CSC2(C(=O)Nc3ccccc32)N1c1cccc(C(F)(F)F)c1` (stereo not drawn), the displacement was found to be 8.4%.
Turning to `CCc1ccc(NC(=O)CSCC(=O)Nc2ccccc2)cc1`, the displacement was -16.9%.
On to `O=S(=O)(NCCc1ccccc1)c1cccs1`, for which the displacement amounted to 1.7%.
The same measure for `O=C(COc1ccccc1)N1CCN(c2ccccn2)CC1`: -4%.
